Source: ChEMBL document CHEMBL4888484, “Replenishing the malaria drug discovery pipeline: Screening and hit evaluation of the MMV Hit Generation Library 1 (HGL1) against asexual blood stage Plasmodium falciparum ,using a nano luciferase reporter read-out” (2022)
In all, about 150,000 compounds went through this assay and about 540 (0.36%) showed an effect of 50% or more. This is one part of the list.

System: Plasmodium falciparum
Assay: Primary screen in NF54 nanoGlo assay, in single point, at 2uM, 72h; a lower Z score goes with more inhibition
Type: functional, Erythrocyte
Details: timepoint 72 hour

Compound	% Inhibition	Z score
Cc1cc2c(cc1C)N(CC(=O)Nc1ccc(C(F)(F)F)cc1)C(=O)CC(c1cccs1)=N2	46%	-5.17
Cc1cc(Cl)ccc1NC(=O)N1CCN(c2ncccc2-c2nnc(C(C)C)o2)CC1	-4%	0.42
O=C(Nc1nc2c(Cl)c(Cl)ccc2s1)[C@@H]1CC=CCC1	-10%	1.55
Cc1noc(C)c1CC(=O)N1CCC[C@H](Oc2ccncn2)C1	0%	-0.07
COCCNC(=O)C1Cc2ccccc2N2CCOCC12 (stereo not drawn)	-3%	0.51
COc1cc([C@H]2CC(=O)Nc3c2c(=O)[nH]n3C2CCCC2)ccc1O	33%	-3.76
CC(=O)N[C@H]1C[C@@H](c2ccccc2-c2ccccc2)O[C@@H](C(C)C)C1	11%	-1.51
O=C(c1cc2ccccc2[nH]1)N1C[C@@H]2CC[C@H]1CN(Cc1ccccn1)C2	-4%	0.66
CCOc1ccc(CN2C(=O)c3cc(-c4ccccc4)nn3C[C@@]2(C)C(=O)NCc2ccccc2OC)cc1	-1%	0.08
CCCCn1nc(C(C)C)nc1CCc1ccncc1	-13%	1.23
Cc1cnc(-c2noc(C[C@H]3CCc4ccccc43)n2)nc1	-1%	0.08
O=C(N[C@H]1CCCCNC1=O)c1coc(COc2cccc(C(F)(F)F)c2)n1	7%	-1.04
Cc1nc(-c2cccc(C(=O)NCCCC[C@H]3CCCO3)c2)sc1C	-12%	1.32
CC1(C)C(c2ccccc2)=NO[C@@H]1N1CCOCC1	44%	-1.59
Cc1nc(N)sc1-c1ccn(-c2cccc(F)c2)n1	-5%	0.66
O=C1CC2CCC(CN1)N2C(=O)c1ccoc1Cl (stereo not drawn)	-1%	0.15
Cc1c(O)cccc1C(=O)N1CCOC[C@@H](CN(C)C)C1	-15%	1.98
CCn1c(CN2CCNCC2)nc2cc(S(=O)(=O)N3CCCCC3)ccc21	-5%	0.5
O=C(Nc1ccc(-c2nc3ncccc3o2)cc1)c1ccc(OCc2ccccc2)cc1	-23%	3.74
O=C(CCC(F)(F)F)Nc1ccc2sncc2c1	-13%	1.97
Cc1nc(NC2CC2)sc1C(=O)NCc1ccco1	3%	-0.31

Compound	% Inhibition	Z score
O=c1[nH]c2nc(N3CCN(c4ncccn4)CC3)ncc2c(=O)n1-c1ccc2c(c1)OCO2	-4%	0.57
COc1cc(NS(C)(=O)=O)c(OC)cc1Cl	-13%	2.43
CCCN(Cc1[nH]cc(C)c(=O)c1C)[C@H]1CCCC[C@@H]1O	-6%	0.99
CCc1ccc(CN(C)[C@H]2CCCc3c2cnn3C)o1	-1%	0.15
O=C(NCc1ccccc1)N[C@H]1CO[C@H]2[C@@H]1OC[C@@H]2n1cc(-c2ccccn2)nn1	15%	-1.77
CN(C)c1cccc([C@@H]2CCCN2C(=O)Nc2ccc3c(c2)N(C)CCO3)c1	-14%	1.81
CCOc1cccc(CCC(=O)N2CCN(C(=O)c3cc(C)[nH]n3)C[C@H]2C)c1	-7%	1.08
COc1ccc(-n2ccnc(NC(=O)c3ccncc3)c2=O)cc1OC	-10%	1.34
CNC(=O)C1C2CCC(C2)N1S(=O)(=O)c1ccc2c(c1)OCCO2 (stereo not drawn)	-3%	0.5
CC(C)(C(=O)O)[C@H]1CCCN(C(=O)C2CCC2)C1	-13%	1.19
O=C(C1CCN(S(=O)(=O)c2ccc(-c3noc(-c4ccc(Cl)cc4Cl)n3)cc2)CC1)N1CCCC1	-1%	0.15
Cc1nc(-n2ccc3ccccc32)sc1C(=O)O	9%	-1.52
CC(C)c1nc2ccc(NC(=O)N[C@H]3CCS(=O)(=O)C3)cc2s1	7%	-0.87
Cc1nccc(O)c1OCC(=O)Nc1ccncc1	-2%	0.2
O=C(NC1CCCN(c2cccc(F)c2)C1)C1CCS(=O)(=O)C1 (stereo not drawn)	-1%	0.11
S=c1cc(-c2ccccc2)n(CCCc2ccccc2)c2c1CCCC2	-6%	0.85
CCCn1nccc1NC(=O)N[C@@]1(C)CCS(=O)(=O)C1	-11%	1.61
O=C(NCc1ccccc1)N1CCC[C@@](F)(C(=O)NCc2cccnc2)C1	-9%	0.77
CC(C)(C)n1cc(CS(=O)(=O)CC2CCC3CC3C2)cn1 (stereo not drawn)	-6%	1.05
Cc1cc(CS(=O)(=O)NCCc2c(C)noc2C)no1	-3%	0.23
C[C@@H]1CN(Cc2ccc(OC(F)F)c(Cl)c2)CC(C(N)=O)O1 (stereo partly drawn)	-1%	0.11

Compound	% Inhibition	Z score
CCC(=O)N1CC[C@H]2CC(=O)Nc3ccc(-c4cnn(C)c4)cc3OCC[C@H]2C1	-1%	0.18
O=C1CN(C(=O)Cn2nnc3ccccc3c2=O)c2ccccc2N1	-13%	2.5
CCN(C(=O)c1cccc(-c2nc(C)nc3ccccc23)c1)[C@H]1COC[C@@H]1O	1%	-0.09
Cc1c(Cc2ccccc2)c(=O)n2nc(-c3ccccc3)nc2n1CC(=O)NC[C@H]1CCCO1	19%	-2.35
Fc1ccc(/C=C/c2nc3c(cnn3Cc3cccnc3)[nH]2)cc1	1%	-0.15
COc1ccc(CN2CCC3(CC[C@@H]3O)CC2)cc1OC	-11%	1.53
O=C(O)[C@H](CC1CCCCC1)N1Cc2ccccc2C1=O	-10%	1.46
Cc1cc(=O)n2cc(Br)ccc2n1	26%	-2.9
NC(=O)Cn1ccnc1C1CCN(c2nnc(-c3ccccc3)s2)CC1	4%	-0.7
CN1C(=O)CN(C[C@H]2COc3ccccc3O2)C(=O)c2ccccc21	-25%	3.36
Cc1nc([C@H](C)NS(=O)(=O)c2cccc3nsnc23)n[nH]1	-8%	1.43
CNc1nc(Nc2ccc(C)c(C)c2)c2nccnc2n1	-2%	0.41
Cc1ccc(CCNC(=O)N2CCCC[C@H]2c2nnc3n2CCCC3)c(C)c1	-7%	1.15
CC(=O)N(c1nc(C)c(C(=O)Nc2ncc(C)s2)s1)C(C)C	2%	-0.34
O[C@@H](c1ccncc1)c1ccc2c(c1)OCO2	-16%	2.21
COCCN1CCC[C@H](c2nc(C)nn2Cc2ccc(Cl)cc2)C1	1%	-0.18
COc1ccccc1N1CCN(C(=O)Cc2oc(-c3ccccc3)nc2CC(C)C)CC1	-3%	0.5
O=C(NC1CCOCC1)N(Cc1ccsc1)CC(F)(F)F	-8%	0.96
CCN1CC2(CCN(CCCO)CC2)C[C@@H](c2ccccc2)C1=O	-8%	1.15
CC(C)[C@H](CCO)NCc1ccc(F)c(C#N)c1	-10%	1.8
CCn1c2c(c(=O)n3ncc(C(=O)NCC4CCN(CCc5ccc(OC)cc5)CC4)c13)CN(Cc1ccc(OC)cc1)CC2	-39%	3.59

Compound	% Inhibition	Z score
CC(C)c1nc(CC(=O)NC[C@H]2CCCO2)cs1	-6%	0.79
O=C(c1cc2ccccc2o1)N(C(=O)N1CCCCC1)c1ccc(Cl)cc1	-4%	0.55
O=C(NCC1CC1)C1CCC(c2ccccc2)N(C(=O)Cc2cccs2)C1 (stereo not drawn)	-9%	0.99
O=C(c1cccc2ccccc12)[C@H]1CCCN(Cc2nc3ccccc3[nH]2)C1	-8%	0.76
O=C(Cc1ccccn1)NCc1cccnc1N1CCC[C@H](O)C1	3%	-0.36
CCCn1nccc1-c1ccc(CN(C)C)cn1	-5%	0.92
CCc1cc([C@@H]2CCCN2C(=O)Nc2cc(C)ccc2OC)on1	-7%	0.96
O=S(=O)(N[C@H]1CCOC[C@@H]1O)c1cc(F)ccc1F	10%	-1.38
N#Cc1ccc(OC[C@H]2C[C@@H](O)C2)c(F)c1	5%	-0.93
Cc1cc(NC(=O)[C@H](C)OC(=O)CCc2ccccc2)on1	0%	-0.01
CCOc1ccc(CNC(=O)Cn2c(CC)nc3onc(C)c3c2=O)cc1OC	0%	-0.01
CC1CC[S+]([O-])CCN1Cc1sccc1Cl (stereo not drawn)	17%	-2.43
CCCC[C@H]1CN(c2cccc(-c3ccccc3)c2)C(=O)CN1C(=O)C(N)=O	-18%	1.64
CCCC(=O)N1CCN(c2cc(Oc3ccccc3F)ncn2)C[C@@H]1C	-4%	0.59
Cn1cccc1[C@H](CNS(=O)(=O)c1cccs1)N1CCCC1	-11%	1.89
Cc1ccc(O[C@H]2CCOC[C@H]2NC(=O)c2cscn2)cn1	-3%	0.61
CCOC(=O)c1cnn(-c2cc(C)ccc2C)c1CN1CCN(CCO)CC1	-4%	0.6
CCOc1cc(N2CCO[C@@H](CN3CCOCC3)C2)ncn1	-7%	0.68
COCCC(=O)N1CCN(Cc2ccc(Br)o2)CC1	-5%	0.7
Cc1ccc(CN(Cc2ccccn2)C[C@H]2CCCNC2)s1	6%	-0.86
Cc1nnc2n1CCN(Cc1c[nH]nc1-c1ccc(F)cc1)[C@H]2C(=O)N(C)C	-6%	0.74
